Test results taken from the supplement of paper PMC12632987.
Over roughly 2,300 sequences, “median log2 fold change of GCK-ALFA target abundance (FLAG IP / Myc IP barcode read proportion)” has its median near 0.095; the lowest 2% begin near -0.47. Some of the results follow.

B1: LC3A_28_1280 (protein)
chain: SEIEKEIEAALKKAEEARKKGEPVVVTIKVPGNATQEEIEKVIEGLEKIAEILKDIPGQAIIIDVDSGVKQEHIDKLLDKAEEIEKKYPNVTVIIALDED
B2: LC3A_28_894 (protein)
chain: SKELEKAEKALEEARAALAAGSTEPLVLEVTAPSTEEDTEKFLELLEEIAEVGSQRPGVSIVIDVPESVSQENIDKVIDKAEELEEKYPNVTIIIALPEN
B3: LC3A_3_1565 (protein)
chain: LEEERERVLKALREAGHSEEVLKAVNEALEKLLEKGYEEAAKTFIEEMLELVDAPDEILLDAANEVLELIETSDLDEETLTEEIKEIARLAKIEAEMDKL
B4: LC3A_3_1567 (protein)
chain: SEELIKEMVEKLKEAGFSEEVIEAAREALKALAAKGAEEAAEIVLETLLKLKDAPEELKLDFLADVKALVETSKASLEELKKQIEELATTYLNESEIEEL
B5: LC3A_3_1578 (protein)
chain: SEERIEEAVERLRAAGLSEEVIEAAREVLEALLERGWEEAAELVVEGLLRLADAPEELLLEALEELLEVAEDESLSEEEALERIKEILSTAEAESEIIEL
B6: LC3A_free_8_2491 (protein)
chain: KSQELAKLASDELDKLEEELTKKAKELGVSPLDILELSLEIGSTIAEIYTKSDESPQAILDTLKEGLKRIIELAKEISEELAKKAEELSKEVLKKVEEKI
B7: LC3A_free_26_2164 (protein)
chain: EEFVNIADIDEALDLLEEALALLPPDDPRLAELRRLLEEAIRLVEKETLESLERARELLLEARALVEADPSLSPETRERLLALLDEAIAHVESNIEILKS
B8: LC3A_3_1448 (protein)
chain: AEELKEKGLKLLEERGASEETIEAAKELFDELIKKGYLESMKVVLEFLEKVKNASDEFLLEMFEDLLELVKTTDASPEEMTKLIKEELNAFESELEIEEL
B9: LC3A_free_39_2266 (protein)
chain: SMEEKKKAMEELEKIAEKFDEETREAILELAELLKDNVEALKKLAELAEEALKKGEKTVKILGEIAKEAVERIKAGEDKEKVAEEFFKLAKNAIEIEEID
B10: LC3A_3_1492 (protein)
chain: MPELLERVRAELERAGASPEEIARVLAAAEELLARGYEETVEKIIELIRKYKDLSPRDLVAAALTTADIAIEENLSEEEAVKKAEEIFEDVAEIEALDEE
B11: LC3A_28_981 (protein)
chain: NAMEKELEEKLEEARKYAEAGEPAVITIKVPGTTNEEQAEKIIETLEEIAEILKNIKGSAIIIDIDKGVKEELKNRLIDKAEEIEEKYPNVTVIIALEEE
B12: LC3A_28_1253 (protein)
chain: MEVEESIKKALAEAEAAVAKGEEALVTIKVPAGITEEEVEKVIEAMEEIAEKTKSLPKTTILIDVEAGVPQEAIDKLADKGEELEKKYPHLTVILALEEE
B13: LC3A_3_1386 (protein)
chain: MEEKREEALERLREAGHSEEVIEAARRALEALIEKGYEEAYETLIELLDELIHLPDELLLELFEEVLELIETEDIDEEELTERIKEIASVFRNESEIEEL
B14: LC3A_28_912 (protein)
chain: SAIEEATAAAIAQIRADAAAGEPAVVTLDAEHEDVEEAERLTREALERLEEEMLKHDGVTLIVDVPGHNAEAITRVADEADERLRERNPSNHIIVALDEE
B15: LC3A_3_1811 (protein)
chain: MEERLERALEELRAAGASEETLEAVREAVELLLEKGYEEAAETFLELMLELKHLPSELLLEMAEEVLELVKTSDLSEEEITEEIKRIARTVRHEGEIIEL
B16: LC3A_141_383 (protein)
chain: MKKEFEMEATKETADEVFKFMEEVEKETLEMIKESGGKPVKMKVKITATNEKTGEVVEKEEEYIVTEENADLVADGIEIEVLSLLDRVGGKVKVKVTLES
B17: LC3A_free_46_2321 (protein)
chain: YKAEIDIDIDGVNEEDAKKLVEELKKEIKKIAEKYGLKVEIEVEIEKNEDGTYFVRINVTLEGENEEDLKKAVNEIIEKSEELAEKYGASVVISYEIEKK
B18: LC3A_free_46_2404 (protein)
chain: YRGTILIDALAESREKAEEFAKEIEKAAKEIAKKYGAEVEIKVEIEELPDGTVFVRIEIVVKAETEEKLKKFVNDLIEEIDKIAEKLGVSYIISYEIEKE
B19: LC3A_28_1334 (protein)
chain: STADKIIAEANAQIKAVAASGKPSVIVVDIPGSMTAEEARRVATAVKEAAKKEKLPKGTAIIFSFDASVSQEVIDVVADEAEELEKEVPGITVIIALDEN

molecular target: MAP1LC3A, Q9H492; test: median log2 fold change of GCK-ALFA target abundance (FLAG IP / Myc IP barcode read proportion) (log2 ratio); each designed protein is fused to an ALFA-tag nanobody in HEK293 cells to bring the named protein to FLAG-tagged glucokinase (GCK); Myc marks an untargeted standard; higher = target protein stabilised (more abundant); conditions: target protein: 3xFLAG-MCP-GCK-ALFA reporter; HEK293 landing pad (RPLP)
In short: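 Binders fused to an ALFA nanobody were recombined as a library into HEK293 landing-pad cells, which were induced with 2 μg mL^−1 doxycycline and then transfected to express a FLAG-tagged target and a Myc-tagged standard. After 48 h, circular RNA barcodes recovered by anti-FLAG and anti-Myc immunoprecipitation of lysates were reverse transcribed, amplified and sequenced. Each binder's target abundance is the median log2 ratio of FLAG to Myc barcode read proportions, from barcodes present at ≥10^−7 in both replicates, binders carrying ≥3 barcodes per replicate, a 10^−6 pseudocount and pooled replicates.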

Row | Binder | median log2 fold change
1 | B1 | 0.0554
2 | B2 | -0.226
3 | B3 | 0.246
4 | B4 | 0.339
5 | B5 | -0.0331
6 | B6 | 0.123
7 | B7 | 0.0771
8 | B8 | 0.129
9 | B9 | 0.265
10 | B10 | 0.123
11 | B11 | -0.14
12 | B12 | 0.203
13 | B13 | 0.167
14 | B14 | 0.318
15 | B15 | 0.225
16 | B16 | 0.328
17 | B17 | 0.328
18 | B18 | 0.027
19 | B19 | -0.0393
